The record followed here is PMC4336329 (PLoS ONE, 2015).

The structures appear in SMILES notation. In all, about 310,000 compounds went through this assay and about 2,200 (0.71%) showed an effect of 50% or more. Effects have a minus sign here. The list shows a part of the results.

human ether-à-go-go-related gene (hERG) potassium channel, sequence (Q12809 whole entry, looked up): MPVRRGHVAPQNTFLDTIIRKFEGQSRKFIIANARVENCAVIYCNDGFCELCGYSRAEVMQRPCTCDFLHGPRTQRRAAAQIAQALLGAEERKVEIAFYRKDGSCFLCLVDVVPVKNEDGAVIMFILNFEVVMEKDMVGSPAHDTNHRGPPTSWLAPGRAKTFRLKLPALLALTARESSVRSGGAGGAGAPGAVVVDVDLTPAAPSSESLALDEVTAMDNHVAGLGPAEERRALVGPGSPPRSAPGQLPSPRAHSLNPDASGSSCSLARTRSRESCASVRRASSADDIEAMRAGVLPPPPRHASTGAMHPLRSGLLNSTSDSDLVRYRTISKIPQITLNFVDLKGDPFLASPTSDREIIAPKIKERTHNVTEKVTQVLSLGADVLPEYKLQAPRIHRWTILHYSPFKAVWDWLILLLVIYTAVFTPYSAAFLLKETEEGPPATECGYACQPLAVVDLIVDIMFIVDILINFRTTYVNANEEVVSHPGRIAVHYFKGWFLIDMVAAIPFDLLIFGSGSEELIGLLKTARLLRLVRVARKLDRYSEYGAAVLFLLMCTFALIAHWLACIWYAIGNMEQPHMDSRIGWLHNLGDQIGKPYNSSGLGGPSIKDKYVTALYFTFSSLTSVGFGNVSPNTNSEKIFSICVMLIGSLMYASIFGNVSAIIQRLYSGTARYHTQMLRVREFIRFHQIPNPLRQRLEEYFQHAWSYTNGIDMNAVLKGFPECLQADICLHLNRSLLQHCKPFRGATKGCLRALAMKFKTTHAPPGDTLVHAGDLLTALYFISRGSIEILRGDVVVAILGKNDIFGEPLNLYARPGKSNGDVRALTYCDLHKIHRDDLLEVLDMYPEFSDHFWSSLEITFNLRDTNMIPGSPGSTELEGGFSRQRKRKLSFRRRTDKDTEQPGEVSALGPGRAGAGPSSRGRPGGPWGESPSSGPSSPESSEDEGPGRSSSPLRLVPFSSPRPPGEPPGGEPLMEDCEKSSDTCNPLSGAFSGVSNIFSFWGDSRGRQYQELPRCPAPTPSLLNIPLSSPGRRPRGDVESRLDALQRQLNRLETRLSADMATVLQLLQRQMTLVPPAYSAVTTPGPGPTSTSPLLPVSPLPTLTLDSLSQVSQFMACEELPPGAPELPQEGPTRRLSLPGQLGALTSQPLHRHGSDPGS

The test addresses human ether-à-go-go-related gene (hERG) potassium channel (human, UniProt Q12809). Nature of the test: primary screen, population patch clamp on CHO cells stably expressing hERG.
Consider `CCn1nc(C)c(CNC(=O)CC2C(=O)NCCN2CC(C)(C)C)c1C` (centres unmarked), for which the “hERG current change (%, negative = inhibition) at 1uM” value was found to be 15.3%.
Consider `CC(=O)c1cccc(NC(=O)NNC(=O)c2ccc3ccccc3c2)c1`, for which the “hERG current change (%, negative = inhibition) at 1uM” value is on record as -2.36%.
For the compound `O=C(O)C1C2C=CC(C2)C1C(=O)NCCCn1ccnc1` (centres unmarked), the “hERG current change (%, negative = inhibition) at 1uM” value turned out to be 2.32%.
As for `CCCc1ccc(Oc2cc(NN3CCCCC3)c([N+](=O)[O-])cc2[N+](=O)[O-])cc1`, the figure is -3.09%.
As for `CNC(=O)Oc1ccc(C(=O)N2c3ccccc3NC(=O)C2C)cc1` (centres unmarked), the figure is 12.1%; as for `Cc1ccc(NC(=O)CNC(=O)c2ccco2)c(Cl)c1`, 4.85%.
As for `CC(=O)c1sc(NC(=O)C2(F)C(F)(F)C(F)(F)C(F)(F)C(F)(F)C2(F)F)nc1C`, the figure is 13.7%.
For the compound `COc1ccc(NC(=O)CSc2nc3c(cc2C#N)CN(C)CC3)cc1`, the “hERG current change (%, negative = inhibition) at 1uM” value is listed as 1.84%.
As for `O=C(NCCN1CCOCC1)c1cc(Sc2ccccc2Cl)nc2ccccc12`, the figure is -2.55%; as for `O=C(O)c1ccccc1-c1ncc(-c2ccccc2)o1`, 4.93%; as for `C#CCOc1ccc(/C=N/NC(=O)c2cccnc2)cc1OCC`, -5.67%.
With `COc1ccc(-c2[nH]ncc2CN2CCCC(C(=O)c3ccc(OC)cc3OC)C2)cc1` (centres unmarked) the figure was -47.3%; with `O=C(CCN1CCN(c2ccccc2F)CC1)Nc1cccc(F)c1`, 3.23%; with `CCOc1ccc2nc(SCC(=O)N(CCOC)c3c(N)n(Cc4ccccc4)c(=O)[nH]c3=O)[nH]c2c1`, 14.1%.
With `CCOC(=O)c1c(C)[nH]c(C=Nc2ccc(OC)cc2)c1O` the figure was 2.76%.
`CCOC(=O)c1[nH]c2cc3c(cc2c1NC(=O)CN1CCC2(CC1)OCCO2)OCO3`: the “hERG current change (%, negative = inhibition) at 1uM” value was determined as 8.62%.
For `Cc1cccc(OCCn2c(S(=O)(=O)O)nc3ccccc32)c1`, the “hERG current change (%, negative = inhibition) at 1uM” value is on record as 3.9%.
Take `COc1ccc(Cl)cc1C(=O)Nc1ccc(CN2CCCCC2)cc1`: the “hERG current change (%, negative = inhibition) at 1uM” value is given as -4.8%.
With `CCCCCCC(=O)N/N=C/c1c(O)n(CCc2ccccc2)c(=O)[nH]c1=O` the figure was 7.62%; with `O=C(Nc1ccc(Br)c2ccccc12)c1ccc2ccccc2c1O`, 16.9%; with `COc1ccc(N2CSC3=C(C#N)C(c4cccc(OC)c4OC)CC(=O)N3C2)cc1` (centres unmarked), 14.8%.
With `Cc1[nH]c2ccccc2c1C(c1ccncc1)N1CCC(C)CC1` (centres unmarked) the figure was 17.1%; with `COc1ccccc1NC(=O)c1cc(C(=O)O)ccc1C(=O)O`, 11.3%; with `O=C(CN(c1ccccc1)S(=O)(=O)c1ccccc1)NCCSc1nc2ccccc2s1`, 8.06%.
For `CCOC(=O)Cn1c(C)cc(=O)c2ccccc21`, the “hERG current change (%, negative = inhibition) at 1uM” value was determined as 12.3%.
Take `CC(Nc1n[nH]c(=S)[nH]c1=O)C(=O)OCc1ccccc1` (centres unmarked): the “hERG current change (%, negative = inhibition) at 1uM” value stood at 6.04%.
With `COc1ccc(NS(=O)(=O)c2ccc(F)c(F)c2F)cc1S(=O)(=O)N1CCOCC1` the figure was 19.1%; with `CCOC(=O)Cc1cn2c(=O)cc(CSCC(=O)Nc3ccc(C)c(C)c3)nc2s1`, 9.54%.
With `COc1ccc(C(=O)/C=C/c2ccc(OC)c(Cn3nnc4ccccc43)c2)cc1` the figure was 8.34%.
In the case of `C#CCSc1nc(Cc2ccc(Cl)cc2)nc2ccccc12`, the “hERG current change (%, negative = inhibition) at 1uM” value stood at 26.7%.
With `CCN(c1ccccc1)S(=O)(=O)c1ccc(C(=O)N(CCN(C)C)c2nc3c(F)cc(F)cc3s2)cc1.Cl` the figure was -17.3%; with `COc1cc(NC(=O)Cn2c([N+](=O)[O-])cnc2C)c(OC)cc1Cl`, 13.2%.
Turning to `CCC(=O)Nc1ccc(C(=O)OCC(=O)c2ccc(C)c([N+](=O)[O-])c2)cc1`, the “hERG current change (%, negative = inhibition) at 1uM” value worked out at 3.57%.
With `Cc1noc(C)c1C(=O)N1CCN(c2ncccn2)CC1`, the “hERG current change (%, negative = inhibition) at 1uM” value stood at 11.8%.
In the case of `COc1ccccc1NC(=O)c1ccccc1Oc1ccccc1`, the “hERG current change (%, negative = inhibition) at 1uM” value worked out at 13.4%.
With `Cc1c(C(=O)NCc2ccco2)oc2c(F)cccc12` the figure was 1.97%; with `COc1ccccc1CNCC(=O)Nc1ccc(C(F)(F)F)cc1.Cl`, 6.96%; with `C#CCn1cc(/C=C2\NC(=O)NC2=O)c2ccccc21`, 8.24%.
With `CCOC(=O)COc1ccc(S(=O)(=O)c2ccc(OCC(=O)OCC)cc2)cc1` the figure was 14.1%.
With `O=C(NCCN1CCOCC1)C1CCN(Cc2ccccc2O)CC1` the figure was 15.6%; with `O=c1ccnc(SCc2ccccc2Cl)[nH]1`, 10.6%; with `O=C(Cn1c(Cc2ccccc2)nc2ccccc21)NCc1ccc2c(c1)OCO2`, 12.1%.
For the compound `CCOC(=O)c1c(-c2ccc(F)cc2)csc1NC(=O)CCN1CCOCC1.O=C(O)C(=O)O`, the “hERG current change (%, negative = inhibition) at 1uM” value is given as -25.7%.
As for `Cc1ncc([N+](=O)[O-])n1Cc1ccccc1`, the figure is 4.29%; as for `CC(=O)Nc1ccc(S(=O)(=O)NCCC(=O)NCC2COc3ccccc3O2)cc1` (centres unmarked), 10%.
With `COc1ccc(Cc2nnc(NC(=O)c3cccc([N+](=O)[O-])c3)s2)cc1` the figure was 18.2%; with `COC(=O)c1cc(=O)nc2sccn12`, 4.27%; with `COc1ccccc1CNc1ccc(N2CCCCC2)cc1`, -3.06%.
On to `CCCNC(=S)Nc1cccc(C(F)(F)F)c1`, for which the “hERG current change (%, negative = inhibition) at 1uM” value was determined as 1.75%.
For the compound `O=C(O)CC1c2ccccc2CCN1S(=O)(=O)c1ccccc1` (centres unmarked), the “hERG current change (%, negative = inhibition) at 1uM” value turned out to be 8.59%.
As for `Cc1cc(NC(=O)C(C)SCC(=O)OCc2ccc([N+](=O)[O-])cc2)no1` (centres unmarked), the figure is 3.86%.
With `Cc1cc2nc3n(c2cc1C)CC1CC(C(=O)NCc2cccc(C(F)(F)F)c2)N(C)C31` (centres unmarked) the figure was -1.89%.
With `O=C(COC(=O)/C=C/c1ccc(F)cc1)Nc1nnc(-c2ccccc2)o1` the figure was 12.1%; with `Cc1ccc(CCNC(=O)c2cc(-c3ccncc3)nc3ccc(S(=O)(=O)N4CCOCC4)cc23)cc1`, 20.3%.
With `CN(C)CCCO[C@@H]1[C@H]2OC(C)(C)O[C@H]2O[C@@H]1[C@H](O)CO.Cl`, the “hERG current change (%, negative = inhibition) at 1uM” value was found to be 11.5%.
As for `Cc1n[nH]c(=S)n1/N=C/c1ccccc1OCc1ccc(Cl)cc1Cl`, the figure is 5.26%.
